The supplement of paper PMC10369915
This is one part of the list. Rule as the data show it: active = 3.2 or more and inactive = the rest. The signal is at background level for most entries.

B1: AKR1C2_Y81 (peptide)
chain: REDIFYTSKLW
B2: ALB_Y394_D389V (peptide)
chain: VPHECYAKVFD
B3: ALB_Y174_YF (peptide)
chain: RHPFFYAPELL
B4: AK7_Y390_N389K_YF (peptide)
chain: KELAKYFKLHH
B5: AKR1B1_Y40_H42L (peptide)
chain: AIDVGYRLIDC
B6: ALB_Y425 (peptide)
chain: EQLGEYKFQNA
B7: ALB_Y108 (peptide)
chain: TLRETYGEMAD
B8: AKR1A1_Y50_N52S (peptide)
chain: DCAAIYGSEPE
B9: AIPL1_Y267_R270H (peptide)
chain: GIVKAYYVHAR
B10: AKR1C3_Y81_E77G (peptide)
chain: RGDIFYTSKLW
B11: ALB_Y287 (peptide)
chain: ADLAKYICENQ
B12: AKT3_Y174_G171R_YF (peptide)
chain: ASRKFYAMKIL
B13: AKR1B1_Y199 (peptide)
chain: EKLIQYCQSKG
B14: AKT3_Y174 (peptide)
chain: ASGKYYAMKIL
B15: AIPL1_Y267_R270H_YF (peptide)
chain: GIVKAYFVHAR
B16: AIPL1_Y268_YF (peptide)
chain: IVKAFYVRARA
B17: ALDH1A3_Y497 (peptide)
chain: YALAEYTEVKT
B18: AKR1D1_Y199 (peptide)
chain: VECHPYFTQPK
B19: AKT3_Y173_G171R_YF (peptide)
chain: KASRKYFAMKI
B20: AKR1B1_Y199_G204S (peptide)
chain: EKLIQYCQSKS
B21: ALB_Y343_A344T (peptide)
chain: DVCKNYTEAKD
B22: AIPL1_Y268_R270H_YF (peptide)
chain: IVKAFYVHARA
B23: AKT3_Y173_YF (peptide)
chain: KASGKYFAMKI
B24: AKR1B10_Y316 (peptide)
chain: PFNAEYGGGGG
B25: ALB_Y174 (peptide)
chain: RHPYFYAPELL
B26: AK7_Y391 (peptide)
chain: ELANYYKLHHI
B27: ALB_Y377_E378K (peptide)
chain: RLAKTYKTTLE
B28: AHCY_Y143 (peptide)
chain: LIHTKYPQLLP
B29: AKR1B10_Y310 (peptide)
chain: SHLEDYPFNAE
B30: AK7_Y390_N389K (peptide)
chain: KELAKYYKLHH
B31: ALDH1A3_Y492_YF (peptide)
chain: RELGEYALAEF
B32: AKR1A1_Y50_E55D (peptide)
chain: DCAAIYGNEPD
B33: AHSG_Y314_R317C (peptide)
chain: LHRAHYDLCHT
B34: AK7_Y390 (peptide)
chain: KELANYYKLHH
B35: AKAP9_Y2482_K2484R (peptide)
chain: LENQTYFRSFE
B36: AKR1A1_Y50 (peptide)
chain: DCAAIYGNEPE
B37: AGXT_Y297_A295T (peptide)
chain: REATAYLHGRL

These binders were tested against SHP2 C-SH2 domain E139D (assay: enrichment score (SH2-bound / input frequency) (ratio); bacterial display of known human phosphotyrosine sites (pTyr-Var adds point mutants) read by sequencing; higher = stronger binding; tyrosines were phosphorylated by kinases first). Details: peptide library: pTyr-Var.
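Also: displayed peptides selected on beads carrying the immobilized SH2 domain, with library peptides lacking any tyrosine serving as negative controls.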

Enrichment score, inactive:
B1 1.02
B2 1.03
B3 2.08
B4 1.02
B5 0.775
B6 0.844
B7 0.511
B8 0.675
B9 1.99
B10 0.935
B11 0.854
B12 0.955
B13 0.912
B14 1.42
B15 2.23
B16 0.414
B17 0.67
B18 0.726
B19 0.599
B20 0.884
B21 0.58
B22 1.7
B23 1.92
B24 0.172
B25 1.08
B26 0.869
B27 0.521
B28 1.02
B29 0.79
B30 1.5
B31 0.867
B32 0.685
B33 2.36
B34 1.23
B35 0.911
B36 0.703
B37 0.595

The binders below were run against SHP2 C-SH2 domain wild-type in the same assay as above. Details: peptide library: pTyr-Var.

Enrichment score, inactive:
B1 0.952
B2 1.26
B3 1.91
B4 0.693
B5 0.994
B6 0.78
B7 0.697
B8 1.34
B9 1.92
B10 0.923
B11 1.23
B12 1.08
B13 0.834
B14 1.34
B15 2.59
B16 0.296
B17 0.839
B18 0.703
B19 0.844
B20 0.925
B21 0.64
B22 1.57
B23 1.42
B24 0.74
B25 0.738
B26 0.763
B27 0.508
B28 0.919
B29 0.678
B30 1.15
B31 0.668
B32 0.652
B33 2.34
B34 0.96
B35 0.768
B36 0.754
B37 0.526

These binders were tested against SHP2 N-SH2 domain L43F in the same assay as above. Details: peptide library: pTyr-Var.

Enrichment score, inactive:
B1 0.882
B2 0.898
B3 2.37
B4 0.845
B5 0.915
B6 0.793
B7 0.781
B8 0.618
B9 1.76
B10 0.777
B11 0.889
B12 0.923
B13 0.777
B14 1.11
B15 2.58
B16 0.258
B17 0.749
B18 0.704
B19 0.715
B20 0.828
B21 0.617
B22 1.4
B23 1.54
B24 0.748
B25 0.907
B26 0.763
B27 0.654
B28 1.15
B29 0.587
B30 1.18
B31 0.801
B32 0.597
B33 2.51
B34 1.02
B35 0.699
B36 0.673
B37 0.655

What follows are binders tested against SHP2 N-SH2 domain T42A in the same assay as above. Details: peptide library: pTyr-Var.

Enrichment score, inactive:
B1 1.22
B2 0.922
B3 2.17
B4 0.792
B5 1.13
B6 0.837
B7 0.523
B8 0.589
B9 1.39
B10 1.27
B11 0.659
B12 0.835
B13 0.929
B14 1.12
B15 2.12
B16 0.347
B17 1.23
B18 0.727
B19 0.682
B20 0.801
B21 0.535
B22 1.41
B23 1.57
B24 0.887
B25 0.7
B26 0.667
B27 0.445
B28 1.04
B29 0.559
B30 1.16
B31 0.689
B32 0.552
B33 1.91
B34 0.896
B35 0.668
B36 0.635
B37 0.568

These binders were tested against SHP2 N-SH2 domain T52S in the same assay as above. Details: peptide library: pTyr-Var.

Enrichment score, inactive:
B1 0.963
B2 0.953
B3 2.16
B4 1
B5 0.722
B6 0.933
B7 0.665
B8 0.718
B9 1.81
B10 0.773
B11 0.775
B12 1.03
B13 0.901
B14 1.22
B15 2.16
B16 0.322
B17 0.801
B18 0.688
B19 0.755
B20 0.821
B21 0.747
B22 1.56
B23 1.77
B24 0.716
B25 0.935
B26 0.822
B27 0.343
B28 1.26
B29 0.647
B30 1.39
B31 0.641
B32 0.559
B33 2.07
B34 1.15
B35 0.709
B36 0.693
B37 0.559

The binders below were run against SHP2 N-SH2 domain wild-type in the same assay as above. Details: peptide library: pTyr-Var.

Enrichment score, inactive:
B1 0.861
B2 0.957
B3 2.46
B4 0.963
B5 0.87
B6 1.17
B7 0.797
B8 0.69
B9 1.92
B10 0.806
B11 1.08
B12 0.958
B13 0.668
B14 1.21
B15 2.52
B16 0.401
B17 0.758
B18 0.965
B19 0.67
B20 0.943
B21 0.694
B22 2.02
B23 1.92
B24 0.608
B25 1.13
B26 0.9
B27 0.39
B28 0.978
B29 0.662
B30 1.3
B31 0.685
B32 0.564
B33 1.99
B34 1.19
B35 0.861
B36 0.889
B37 0.895
